Square brackets hold non-standard residues; d marks the D form. Ends that are not written are not given here. Peptide text beside a SMILES is read from it. Phe(4-F) = N[CH](Cc1ccc(F)cc1)C(=O)O; Dopa = N[CH](Cc1ccc(O)c(O)c1)C(=O)O
Columns and labels:
[1] = Peptide layer thickness on Ti by AFM; type: physicochemical; details: Ti surfaces coated with peptide
Experimental: For further characterization of the coating topography and thickness, Atomic Force Microscopy (AFM) analysis of Ti surfaces coated with the different peptides was performed. […] Surfaces were prepared in the same manner as was mentioned before. AFM images were taken in AC mode with Si tip with spring constant 3 N/m in JPK instrument (NanoWizard 3).

[2] = Contact angle of peptide-coated titanium surfaces; details: titanium substrate dipped in 1 mg/ml peptide solution (Tris buffer); titanium in buffer 33°
Experimental: To coat the Ti substrate with a peptide, a bare titanium substrate was dipped in 1 mg\ml peptide solution (Tris buffer). The change of the surface contact angle due to the assembly of the peptide on the substrate was measured.
1 cm×1 cm titanium surfaces were sonicated for 5 minutes in ethanol, washed with TDW and dried under nitrogen. The clean surfaces were dipped in a peptide solution (1 mg/mL in TRIS buffer at pH=8.5, 10 mM concentration and ionic strength of 154 mM with NaCl) and left for incubation overnight at room temperature. Then, the modified substrate were rinsed three times with 1 ml TDW and dried under nitrogen.
Contact angle measurements were carried out using a Theta Lite optical tensiometer (Attension, Finland).

Molecule	layer thickness (AFM) [1]	contact angle of coated surface [2]
N=C(N)NCCCC(NC(=O)C(Cc1ccc(F)cc1)NC(=O)C(Cc1ccc(F)cc1)NC(=O)C(N)Cc1ccc(O)c(O)c1)C(=O)NCC(=O)NC(CC(=O)O)C(N)=O (stereo not drawn) [Peptide 1, DOPA-Phe(4F)-Phe(4F)-Arg-Gly-Asp] (H-[Dopa][Phe(4-F)][Phe(4-F)]RGD-NH2; configuration not given here)	around 65 nm	54 °
N=C(N)NCCCC(NC(=O)C(Cc1ccc(O)c(O)c1)NC(=O)C(Cc1ccc(F)cc1)NC(=O)C(N)Cc1ccc(F)cc1)C(=O)NCC(=O)NC(CC(=O)O)C(N)=O (centres unmarked) [Peptide 2] (H-[Phe(4-F)][Phe(4-F)][Dopa]RGD-NH2; configuration not given here)		49 °
N=C(N)NCCCC(NC(=O)C(Cc1ccc(F)cc1)NC(=O)C(CC(=O)O)NC(=O)C(N)Cc1ccc(O)c(O)c1)C(=O)NC(Cc1ccc(F)cc1)C(=O)NCC(N)=O (centres unmarked) [Peptide 3] (H-[Dopa]D[Phe(4-F)]R[Phe(4-F)]G-NH2; configuration not given here)		55 °
Peptide 4: control peptide with the same amino acids in mixed sequence, without the cell adhesion and the anti-fouling elements ([Dopa][Phe(4-F)]DG[Phe(4-F)]R; not fully specified (C-terminus))		65 °
